Test results: PubChem BioAssay AID686978 (National Center for Advancing Translational Sciences (NCATS), 2013)
Several values for one entry are separate records, joined by “and”; a condition that tells them apart may be missing. Identical values can stand only once. Hit rate of the full screen: of about 420,000 compounds, about 64,000 (15%) were called active. The shares of active, inactive and inconclusive entries below differ from those in the screen. The call rests on the fitted dose curve; in most records, active means well fitted inhibition curve with a large enough effect; inconclusive means small, poorly fitted or top-dose-only effect; inactive means flat fitted curve, though single readings scatter. Potencies of inconclusive entries are left out as doubtful fits. The source holds several records for some structures; these can differ, active in one and inactive in another.

Experiment: qHTS for Inhibitors of human tyrosyl-DNA phosphodiesterase 1 (TDP1): qHTS in cells in absence of CPT; further: nearly all actives have a fitted effect of over 55% in size
Settings: DT40 Tdp1-/- hTDP1 cells, no CPT, ATP luminescence, 48 h; activity change, negative = growth inhibition: at 46.2 µM (top of the series)
Procedure, shortened: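 Camptothecin absent (DMSO only). Human TDP1-complemented DT40 knockout cells, 400 cells/well, 37 °C for minimum 48 hr; ATP measured via CellTiter-Glo, 30 min dark incubation, luminescence.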
On the % scale 0 is the no-effect control and ±100 the full control effect; potency means the concentration at half of the fitted maximal effect; tags describe the fitted curve by direction and shape.

| Structure (SMILES) | Potency | activity change, negative = growth inhibition |
| --- | --- | --- |
| O=C(NCC1CCCO1)C1CCN(S(=O)(=O)N2CCCC2)CC1 (configuration not stated) | inactive |  |
| CC(C)C[C@@H](CN1C(=O)C(=O)NC[C@@H]1CC(C)C)NC(=O)Cc1ccccc1 | inactive |  |
| CC(=O)N(CCC(c1ccco1)C(C)C)Cc1ccc(OC(C)C)cc1 (configuration not stated) | inconclusive [inhibitor, single point] |  |
| Cc1nnc(NC(=O)CCC(=O)NCc2ccco2)s1 | inactive |  |
| O=C(c1ccc(S(=O)(=O)N2CCCCC2)cc1)N1CCN(c2ccccc2F)CC1 | inactive |  |
| Cc1cccc(N2CCN(C(=O)C3CCN(S(=O)(=O)c4cnc[nH]4)CC3)CC2)c1C | inconclusive [inhibitor, single point] |  |
| COc1ccc(N(C)S(=O)(=O)c2cccc(C(=O)NCc3ccc4c(c3)OCO4)c2)cc1 | inconclusive [inhibitor, single point] |  |
| CC(C)(C)NC(=O)c1nn(Cc2ccccc2)c(=O)c2ccccc12 |  | inconclusive: -30.2% [inhibitor] |
| CCN(CC)S(=O)(=O)c1ccc(C(=O)NCc2ccc(C)cc2)cc1 | inconclusive [inhibitor, partial curve] |  |
| CCOc1ccc(-c2nnc(SCC(=O)NCc3ccc(C)cc3)nc2-c2ccc(OCC)c(OC)c2)cc1OC | inconclusive [inhibitor, single point] |  |
| COc1ccc(Cl)cc1NC(=O)CCNC(=O)OCc1ccccc1 | inconclusive [inhibitor, single point] |  |
| Cc1noc(C)c1S(=O)(=O)N1CCC(C(N)=O)CC1 | inactive |  |
| Cc1cc(NC(=O)CSc2nnc(-c3ccncc3)n2Cc2ccccc2)n(-c2ccccc2)n1 | inconclusive [inhibitor, single point] |  |
| CC(C)C(NC(=O)Cc1ccccc1)C(=O)N1CCN(c2cccc(Cl)c2)CC1 (configuration not stated) | active: 3.26 µM |  |
| CCN(CC)c1ccc(N2C(=O)/C(=C/c3cccs3)SC2=S)cc1 | inconclusive [inhibitor, single point] |  |
| C=CCNc1nc(NCc2ccccc2)c(C#N)c2c1CN(C)CC2 | inconclusive [inhibitor, single point] |  |
| CCN(CC(=O)NCc1cccs1)C(=O)CCC(=O)c1ccc(C)cc1 | inactive |  |
| CCN1CCN(c2ncc(C(=O)N3CCN(c4ccccc4OC)CC3)c3ccccc23)CC1 | inconclusive [inhibitor, single point] |  |
| Cc1c(C(=O)NCc2ccoc2)oc2ccc3c(c12)C(=O)CC(C)(C)O3 | inconclusive [inhibitor, single point] |  |
| CC1=CC2=NC(=O)/C(=C\c3cccn3CCOc3cccc(C)c3)C(=N)N2O1 | inconclusive [inhibitor, partial curve] |  |
| C/C(=N\NC(=O)c1cc(C)[nH]n1)c1cccs1 | inactive |  |
| CCCc1cnc(N2CCN(C(=O)c3c(-c4ccccc4)noc3C)CC2)nc1 | inconclusive [inhibitor, partial curve] |  |
| CC(C)(C)c1ccc(OCC(=O)N/N=C/c2cc(Br)ccc2OC(=O)c2ccco2)cc1 | active: 4.11 µM |  |
| CCOc1ccc(CN2CCNC(=O)C2CC(=O)N(C)Cc2nonc2C)cc1 (configuration not stated) | inactive |  |

| Structure (SMILES) | Potency | activity change, negative = growth inhibition |
| --- | --- | --- |
| Cc1ccc(CN2C(=O)CCC2C(=O)NCCCN2CCCC(C)C2)cc1 (configuration not stated) | inactive |  |
| CCOC(=O)c1[nH]c(C)c(CCC(=O)Nc2cccc(C(F)(F)F)c2)c1C | inconclusive [inhibitor, single point] |  |
| CCC/C(=N\NC(=O)c1ccco1)c1ccc(Cl)s1 | inactive |  |
| CC(CNC(=O)c1nnc(Cc2cccc(F)c2)o1)c1ccccc1 (configuration not stated) | inconclusive [inhibitor, single point] |  |
| COc1ccccc1N1CCN(C(=O)c2ccccc2SCC(=O)NCc2ccco2)CC1 | inconclusive [inhibitor, single point] |  |
| CSc1nc(C(=O)N2CCCC(Nc3ccc(C)c(C)c3)C2)cs1 (configuration not stated) | inconclusive [inhibitor, partial curve, poor fit] |  |
| COc1cccc(Nc2ncc3nc(C)c(=O)n(C4CC4)c3n2)c1 |  | inconclusive: -30.1% [inhibitor] |
| COc1cc(CNCCSc2nnnn2C)ccc1OCc1ccc(F)cc1 | active: 20.6 µM |  |
| O=S(=O)(c1ccccc1)N1CCC[C@@]2(CCN(Cc3cc(C(F)(F)F)cc(C(F)(F)F)c3)C2)C1 | inconclusive [inhibitor, single point] |  |
| CCCC(=O)NC(=S)Nc1cc(-c2nc3ncccc3o2)ccc1C | inconclusive [inhibitor, partial curve] |  |
| CC1CCN(S(=O)(=O)N2CCC(C(=O)NCc3ccc4c(c3)OCO4)CC2)CC1 | inconclusive [inhibitor, partial curve, poor fit] |  |
| CCN1CCN(C(=S)c2ccc(SC)cc2)CC1 | inactive |  |
| Cc1c(C(=O)N(C)CCOc2ccccc2)oc2c(Cl)cccc12 | inconclusive [inhibitor, single point] |  |
| CCOc1cc(/C=C2\NC(=S)N(c3c(C)n(C)n(-c4ccccc4)c3=O)C2=O)ccc1O | inconclusive [inhibitor, single point] |  |
| CCCCOCCCNC(=O)C[C@@H]1C[C@@]2(C(=O)OC)CC(C)(C)CC=C2N(Cc2ccccc2)C1=O | inconclusive [inhibitor, single point] |  |
| Cc1cc(C)n(CC(O)COc2ccc3ccccc3c2)n1 (configuration not stated) | inconclusive [inhibitor, single point] |  |
| O=C(Nc1ccc(Cl)cc1)Nc1nnc(CSCc2ccccc2Cl)s1 | active: 11.6 µM |  |
| COc1ccccc1C(=O)NCCSc1c(C)[nH]c2ccccc12 | active: 23.1 µM |  |
| COC(=O)c1ccccc1NC(=O)Cn1cnc2ccc(S(=O)(=O)N3CCC(C)CC3)cc2c1=O | inactive |  |
| COCC(=O)N/N=C/c1ccc(Sc2nc3ccccc3s2)o1 |  | inconclusive: -35.3% [inhibitor] |
| O=C1C[C@H](NC(=O)OCc2ccccc2)CO1 | inactive |  |
| O=C1c2ccccc2C(=O)N1CCCCc1cn(C[C@H]2CC[C@@H]([C@@H]3CC[C@H](Cn4cc(CCCCN5C(=O)c6ccccc6C5=O)nn4)O3)O2)nn1 | active: 16.4 µM |  |
| CC(=O)c1ccc(C(=O)N2CCCC(Nc3ccc(C(C)C)cc3)C2)s1 (configuration not stated) | inconclusive [inhibitor, partial curve] |  |
| Cc1cc(C)c(S(=O)(=O)N2CCN(C(=O)CN3C(=O)NC4(CCCC4)C3=O)CC2)c(C)c1 | inactive |  |

| Structure (SMILES) | Potency | activity change, negative = growth inhibition |
| --- | --- | --- |
| CCOC(=O)c1ccc(NS(=O)(=O)c2cccc3nsnc23)cc1 | inactive |  |
| CC(=O)c1cccc(NC(=O)[C@H](Cc2ccccc2)N2Cc3ccccc3C2=O)c1 | inconclusive [inhibitor, single point] |  |
| COc1cccc(NC(=O)c2ccc3c(c2)N(C)CCS3)c1 | inconclusive [inhibitor, single point] |  |
| CCC(NC(=O)Nc1ccc(OC)c(OC)c1)c1c(-n2cccc2)sc2c1CCN(C)C2 (configuration not stated) | inconclusive [inhibitor, partial curve] |  |
| CC(C)(C)C(=O)Nc1cc(NC(=O)C(C)(C)C)cc(C(=O)Nc2c[nH]c(=O)[nH]c2=O)c1 | inactive |  |
| CC(Sc1nc(N)cc(=O)[nH]1)C(=O)Nc1nc2c(s1)CCCC2 (configuration not stated) | inactive |  |
| CCCNC(=O)C12CCC(C)(c3nc4cc(C)c(C)cc4nc31)C2(C)C (configuration not stated) | active: 23.1 µM |  |
| COc1ccc(N2CC(NC(=O)C3CC3)CC2=O)cc1 (configuration not stated) | inactive |  |
| O=C(Nc1nnc(SCc2ccc(F)cc2)s1)c1ccco1 | inactive |  |
| COC(C(=O)Nc1ccnn1C1CCN(Cc2cnn(C(C)C)c2)CC1)c1ccccc1 (configuration not stated) | inactive |  |
| COc1cccc(NC(=O)CN(C)C(=O)c2cc(S(=O)(=O)Nc3ccccc3OC)ccc2C)c1 | inactive |  |
| CCOC(=O)c1cn(CC(=O)Nc2ccc(CC)cc2)nn1 | inactive |  |
| COc1ccccc1NC(=O)CN(Cc1ccco1)C(=O)c1ccc(N2CCCC2=O)cc1 |  | inconclusive: -30.7% [inhibitor] |
| COc1cc(NC(=O)c2cnc(N)o2)cc(C(=O)Nc2cccc(C(F)(F)F)c2)c1 | inactive and active: 13 µM |  |
| N#CC1=C(N)Oc2cc(O)ccc2C1c1ccc(Br)s1 (configuration not stated) | inconclusive [inhibitor, single point] |  |
| CCc1ccc(NC(=O)Cn2c(=O)c(CNc3ccccc3)cc3cc(OC)c(OC)cc32)cc1 | inconclusive [inhibitor, single point] |  |
| C[C@@H]1CN(C(=O)c2nc3ccc(Cl)cn3c2CN(C)CCc2cnn(C)c2)C[C@H](C)O1 | inactive |  |
| Cc1cc(C)c(C#N)c(N2CCOCC2)n1 | inactive |  |
| O=C(NCCc1csc(-c2cccnc2)n1)c1ccccc1Br | inactive |  |
| O=C(CSc1ncnc2sccc12)Nc1ccccc1F | inactive |  |
| Cc1cc(C)n(-c2cc(O)c(-n3nc(C)cc3C)cc2O)n1 | inconclusive [inhibitor, partial curve, poor fit] |  |
| CCOC(=O)C1(C(F)(F)F)N=C(c2cccnc2)OC(N2CCCCC2)=N1 (configuration not stated) | inconclusive [inhibitor, single point] |  |
| CN(C)c1cc[n+](CC(=O)Nc2ccc(Cl)c([N+](=O)[O-])c2)cc1 | inconclusive [inhibitor, single point] |  |
| CC(C)Cn1c(=O)c2sccc2n2c(CCCC(=O)NC3CCN(Cc4ccccc4)CC3)nnc12 | inconclusive [inhibitor, partial curve] |  |
